# Source: the supplement of paper PMC3334620
# The full ranking holds about 33,000 sequences; the median of “E-score (-0.5 to 0.5)” is about -0.011, and the highest 2% start at about 0.28. Some of the results follow.
# Target: T1, Gcr1 (UniProt P07261)
# T1 sequence: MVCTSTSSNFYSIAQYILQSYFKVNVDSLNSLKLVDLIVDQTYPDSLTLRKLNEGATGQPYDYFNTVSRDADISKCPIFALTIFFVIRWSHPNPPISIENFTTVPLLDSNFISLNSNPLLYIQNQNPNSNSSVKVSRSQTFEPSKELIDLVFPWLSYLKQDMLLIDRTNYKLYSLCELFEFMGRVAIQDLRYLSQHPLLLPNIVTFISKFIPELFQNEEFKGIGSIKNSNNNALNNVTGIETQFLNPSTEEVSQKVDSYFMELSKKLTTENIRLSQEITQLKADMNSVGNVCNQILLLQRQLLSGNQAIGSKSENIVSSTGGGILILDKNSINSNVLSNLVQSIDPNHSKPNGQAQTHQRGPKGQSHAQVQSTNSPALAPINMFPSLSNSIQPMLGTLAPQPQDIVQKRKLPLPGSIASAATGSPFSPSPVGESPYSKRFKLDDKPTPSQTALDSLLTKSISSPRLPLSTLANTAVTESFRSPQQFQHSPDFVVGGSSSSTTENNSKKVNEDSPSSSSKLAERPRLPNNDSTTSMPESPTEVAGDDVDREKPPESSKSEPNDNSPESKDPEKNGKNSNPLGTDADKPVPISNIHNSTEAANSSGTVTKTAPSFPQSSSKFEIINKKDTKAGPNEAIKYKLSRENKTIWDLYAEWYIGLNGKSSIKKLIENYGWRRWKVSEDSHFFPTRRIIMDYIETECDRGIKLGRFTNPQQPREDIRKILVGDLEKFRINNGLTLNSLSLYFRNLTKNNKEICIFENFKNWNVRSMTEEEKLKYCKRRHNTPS
# Test: PBM E-score (8-mer binding enrichment) (E-score (-0.5 to 0.5)); higher = stronger / more preferred TF binding; most listed sequences are background and not binding sites
# Conditions: protein concentration: 100 nM; construct: GST-full length
# Outline: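 Using PURExpress in vitro transcription/translation, GST-tagged yeast transcription factors were made in full-length or DNA-binding-domain form. These were applied at about 100-200 nM to double-stranded universal all-10-mer Agilent arrays, and bound protein was detected with fluorescent anti-GST. Scans were normalised with masliner before the Universal PBM Analysis Suite assigned E-scores to ungapped eight-base words pooled with their reverse complements.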
row,Sequence,PBM E-score
1,CTAGCCAC,-0.154
2,CCATGAAA,0.156
3,GCGTTGTA,-0.00107
4,ACAGACCA,0.0488
5,ATAGAACC,0.102
6,ACTAGTAT,0.213
7,CAGAGGAC,-0.0228
8,CCGGAGAC,-0.0141
9,ACGGATCT,-0.189
10,GTGGGCGA,-0.0253
11,GTATTCGA,0.0462
12,CACACCAG,-0.0989
13,ACGACGCA,0.138
14,AATCCCCA,0.0469
15,CGGACTAA,-0.0788
16,AGTTTTGC,0.011
17,TAGCTAAA,-0.126
18,GGGAAGAC,-0.0109
19,AGGGATGG,-0.0985
20,CTGCACAG,-0.0453
21,AGACTCAG,-0.169
22,AGGACTGC,-0.272
23,CACCGATG,-0.0675
24,CCCGATTA,0.0767
25,TATTGGGA,-0.02

row,Sequence,PBM E-score
1,GGAGGACC,-0.115
2,AGATTTTA,0.0687
3,GCGAAGCA,-0.0597
4,CGCAGTTC,-0.0391
5,AGTAGCCC,0.0181
6,AGTGGCAT,0.193
7,CCACTAAG,0.374
8,CTTCGGGC,0.0503
9,GGTACTAC,-0.0297
10,ATTGACAG,-0.0534
11,GAAAGTCC,-0.203
12,AAATTAGA,0.207
13,CTCGTTGA,-0.0777
14,TCCAATCA,0.0477
15,CACCGGAA,0.266
16,CCATGTGA,-0.091
17,GTATCCAA,0.0892
18,GAATTCAC,0.109
19,CAGCCGCA,0.0862
20,GCAATCGA,-0.127
21,ATTACGCG,0.245
22,ACGTCATG,-0.141
23,CGGGTAAC,-0.0187
24,ACCAGCGA,-0.0696
25,ATCCTCAA,0.0657

row,Sequence,PBM E-score
1,ACCTTTGA,-0.051
2,ATGTAAAA,0.0943
3,CCTTTCCC,-0.246
4,ACACCTAC,-0.0335
5,ATCAAGGA,0.0581
6,ACCGACCA,-0.0984
7,AAAGATCA,0.0261
8,CCGTTGAC,-0.121
9,ACCGTCTC,-0.0748
10,ATATTCAT,0.0243
11,CATACCGG,0.134
12,ATGCCTTC,-0.154
13,AGGGAGCG,0.0432
14,AGCGGTTA,-0.0722
15,CTGGTGTA,-0.222
16,CCATCTCG,0.00173
17,ACGATTGG,-0.0386
18,GGCTGGCA,0.0387
19,AGAGAAGC,0.084
20,AGTACTAC,-0.0858
21,GCTCTACA,-0.00164
22,ATGGATTG,-0.219
23,CTCTTATC,0.121
24,CTTATCAA,0.188
25,CAAGGTAA,0.0839

row,Sequence,PBM E-score
1,AAAATCAG,0.123
2,CTAAAAAA,0.167
3,ATGCAAAT,0.137
4,ATGAGTGC,-0.178
5,GATTTTAA,0.0455
6,ACAACAGG,-0.0974
7,ATTCATAC,0.0931
8,AACCATCA,-0.149
9,CCCGTGAC,-0.0432
10,AATCTCCT,-0.0108
11,AGGCGACG,0.0988
12,GGGGACCC,0.291
13,ATGGAGAG,-0.197
14,CGAGGCCA,-0.135
15,CATAGCTA,-0.095
16,ACTATATC,0.0223
17,GTCGGATA,0.0266
18,AGCGGAGA,-0.0664
19,AGTGTAAG,-0.146
20,CCCTAAGG,-0.13
21,ACAAGGGC,-0.134
22,CGCGGAAC,0.0423
23,ACAGCCAA,0.0234
24,GGCGACAA,0.171
25,CAGGGCGC,0.251

row,Sequence,PBM E-score
1,GATTGCGC,-0.13
2,TCAGTCAA,-0.149
3,AGAAGTAG,0.206
4,CAGTTGTA,0.143
5,CGTCAATC,-0.00892
6,ATATCCCA,0.116
7,ACAGGCCA,-0.156
8,ACTGGTTA,0.0916
9,ACTTTAAC,-0.0262
10,ATTTTGGC,0.116
11,ATCGTGTG,0.0912
12,CTGTTGAA,0.0369
13,AGGTTGGA,-0.118
14,CTTTCCTA,-0.00108
15,CAACGTTC,-0.105
16,ATTTCACC,0.0373
17,GTACAAAA,-0.0647
18,TACCCCGA,-0.036
19,ACTCAAGG,-0.0471
20,CCATGAGC,-0.0516
21,ATGTGTTG,0.102
22,CTCCGAAC,-0.0608
23,CATACAAG,-0.0418
24,CCGGAAAC,0.247
25,GGTCAGAA,-0.139

row,Sequence,PBM E-score
1,GGAATTAA,0.0903
2,GACAAGCC,-0.302
3,CGTCGACA,-0.00153
4,ACCCTGCT,-0.0756
5,ACTCTCAG,0.0147
6,ACATAGTC,-0.105
7,AGAAAGTC,-0.12
8,ATAAATCG,0.027
9,GAGTCGAC,-0.0281
10,AACCCGCA,-0.00106
11,AGGCTTGG,0.0323
12,CTACCAAA,0.181
13,AGAACACT,-0.0753
14,GCGTCATA,0.0508
15,AAGAGTGA,-0.015
16,TCTCCAGA,0.00027
17,CGAGTGAG,-0.284
18,GTCTTCGA,0.0124
19,ACCTGTGC,-0.03
20,GGTTGCTA,0.242
21,ACTCAGCA,-0.146
22,AGGTCAAA,-0.156
23,CTCGTCGC,-0.28
24,CTCCCAAC,0.00879
25,ATAGCGAG,-0.134

row,Sequence,PBM E-score
1,GACAGGGC,-0.168
2,GACTGGGA,-0.076
3,ATAGTCTG,-0.114
4,CGTATCTC,0.0698
5,ATCGTGGG,0.211
6,AGCCCGAT,0.112
7,TGTCCCAA,0.0392
8,TCGTCTAA,0.112
9,CCGGGATC,0.268
10,AGTGCGAG,-0.0808
11,GACTCCTC,0.0371
12,AGAGGCCA,-0.0651
13,AATGCATA,-0.0822
14,AATAAAGA,0.0765
15,ACAATAGG,0.105
16,ACCAGAGG,0.00389
17,AGTTAGCA,0.252
18,ACTATACG,-0.0201
19,ATAGGCAC,0.112
20,AGCGGTAA,0.0329
21,ACGAAAAT,0.00347
22,GCAAAGAA,0.00261
